# Assay results: the supplement of paper PMC8728848
# The list shows a part of the results.
# B1: PX9937F-bfa-516-16-516 (Bacteroides fragilis) (protein)
# chain: LDIDPTSSIADSNYWKTEAQFSTFNVGLHALLRECSFNFFLLGEPRADIYGDVPFGGEATQGMERLPFNTINKENTGISNFAGMYKVINQINLMIAKTKETTVLSEAGKNYYLGEAYGMRAYLYFHLLRSWGDVILYLDYTNGASLDLSNLSKAASPAEEVMKQIKEDITASEKGFGSDYSFKYGRYYWSMAATQMLKGEVYLWSGRQMGGGTADYTTAKTALQSIVSNANVSLQDDFSKVFAYNNKDNSEIIFSIRNAKDEYNMWDDRFRQNLVPQQAYMTSTYCNKEGVSFKDLPEGQLNGLIRLQIRYDLYNKAFRDGDTRKDASMTAVYQKQQDGTVKYIAPFCNKYQGVLLDGASQRSFLNDYPIYRYADCLLLLAEAKALLGEDPTAEINQVRERAYGKEFFEANKATLAYPNDKGDFYTDNKYMSGDEDPLEAILKERMREFMFEGKRWYDLRLLGADYVTKRTSAVATRLLWPINESVLTDNPALKQTPGYQN
# Columns and labels:
# Experiment in all cases: glycan array binding signal (z-score within array); higher = stronger binding
# Settings in all cases: glycan notation: IUPAC condensed, linker removed
# [1] = target: Neu5Ac(a2-6)GlcNAc(b1-4)GlcNAc(b1-4)GlcNAc
# Summary of the method: (§1)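 The Consortium for Functional Glycomics database supplied 3228 glycan arrays, of which those lacking an available protein sequence were dropped. The binding signal, a within-array Z-score, was averaged across arrays of the same protein sequence and across linkers. Negative scores can be read as non-binding.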
# [2] = target: Neu5Ac(a2-8)Neu5Ac
# Summary of the method: as §1
# [3] = target: Neu5Ac(a2-8)Neu5Ac(a2-3)Gal(b1-3)GalNAc(b1-4)[Neu5Ac(a2-3)]Gal(b1-4)Glc
# Summary of the method: as §1
# [4] = target: Neu5Ac(a2-8)Neu5Ac(a2-3)Gal(b1-3)GalNAc(b1-4)[Neu5Ac(a2-8)Neu5Ac(a2-3)]Gal(b1-4)Glc
# Summary of the method: as §1
# [5] = target: Neu5Ac(a2-8)Neu5Ac(a2-3)Gal(b1-4)Glc
# Summary of the method: as §1
# [6] = target: Neu5Ac(a2-8)Neu5Ac(a2-3)Gal(b1-4)GlcNAc
# Summary of the method: as §1
# [7] = target: Neu5Ac(a2-8)Neu5Ac(a2-3)[Gal(b1-3)GalNAc(b1-4)]Gal(b1-4)Glc
# Summary of the method: as §1
# [8] = target: Neu5Ac(a2-8)Neu5Ac(a2-3)[GalNAc(b1-4)]Gal(b1-4)Glc
# Summary of the method: as §1
# [9] = target: Neu5Ac(a2-8)Neu5Ac(a2-8)Neu5Ac
# Summary of the method: as §1
# [10] = target: Neu5Ac(a2-8)Neu5Ac(a2-8)Neu5Ac(a2-3)Gal(b1-4)Glc
# Summary of the method: as §1
# [11] = target: Neu5Ac(a2-8)Neu5Ac(a2-8)Neu5Ac(a2-3)[Gal(b1-3)GalNAc(b1-4)]Gal(b1-4)Glc
# Summary of the method: as §1
# [12] = target: Neu5Ac(a2-8)Neu5Ac(a2-8)Neu5Ac(a2-3)[GalNAc(b1-4)]Gal(b1-4)Glc
# Summary of the method: as §1
# [13] = target: Neu5Ac(a2-8)Neu5Ac(a2-8)Neu5Ac(a2-8)Neu5Ac(a2-3)[GalNAc(b1-4)]Gal(b1-4)Glc
# Summary of the method: as §1
# [14] = target: Neu5Ac(a2-8)Neu5Gc(a2-3)Gal(b1-4)GlcNAc
# Summary of the method: as §1
# [15] = target: Neu5Ac(b2-6)Gal(b1-4)GlcNAc
# Summary of the method: as §1
# [16] = target: Neu5Ac(b2-6)GalNAc
# Summary of the method: as §1
# [17] = target: Neu5Ac9Ac(a2-3)Gal(b1-3)GlcNAc
# Summary of the method: as §1
# [18] = target: Neu5Ac9Ac(a2-3)Gal(b1-4)GlcNAc
# Summary of the method: as §1
# [19] = target: Neu5Ac9Ac(a2-6)Gal(b1-4)GlcNAc
# Summary of the method: as §1
# [20] = target: Neu5Gc(a2-3)Gal(b1-3)GlcNAc
# Summary of the method: as §1
# [21] = target: Neu5Gc(a2-3)Gal(b1-3)[Fuc(a1-4)]GlcNAc
# Summary of the method: as §1
# [22] = target: Neu5Gc(a2-3)Gal(b1-4)Glc
# Summary of the method: as §1
# [23] = target: Neu5Gc(a2-3)Gal(b1-4)GlcNAc
# Summary of the method: as §1
# [24] = target: Neu5Gc(a2-3)Gal(b1-4)GlcNAc(b1-3)Gal(b1-4)GlcNAc(b1-2)Man(a1-3)[Neu5Gc(a2-3)Gal(b1-4)GlcNAc(b1-3)Gal(b1-4)GlcNAc(b1-2)Man(a1-6)]Man(b1-4)GlcNAc(b1-4)GlcNAc
# Summary of the method: as §1
# [25] = target: Neu5Gc(a2-3)Gal(b1-4)[Fuc(a1-3)]GlcNAc
# Summary of the method: as §1
# [26] = target: Neu5Gc(a2-6)Gal(b1-4)GlcNAc
# Summary of the method: as §1
# [27] = target: Neu5Gc(a2-6)GalNAc
# Summary of the method: as §1
# [28] = target: Neu5Gc(a2-8)Neu5Ac(a2-3)Gal(b1-4)GlcNAc
# Summary of the method: as §1
# [29] = target: Neu5Gc(a2-8)Neu5Gc(a2-3)Gal(b1-4)GlcNAc
# Summary of the method: as §1
# [30] = target: Neu5Gc(a2-8)Neu5Gc(a2-3)Gal(b1-4)GlcNAc(b1-3)Gal(b1-4)GlcNAc
# Summary of the method: as §1
# [31] = target: Neu5Gc(a2-8)Neu5Gc(a2-6)Gal(b1-4)GlcNAc
# Summary of the method: as §1
# [32] = target: Neu5Gc(b2-6)Gal(b1-4)GlcNAc
# Summary of the method: as §1
binder,measurement,setting,value
B1,glycan array binding signal (z-score),[1],-0.357
same,glycan array binding signal (z-score),[2],0.026
same,glycan array binding signal (z-score),[3],-0.32
same,glycan array binding signal (z-score),[4],0.235
same,glycan array binding signal (z-score),[5],-0.213
same,glycan array binding signal (z-score),[6],-0.369
same,glycan array binding signal (z-score),[7],-0.045
same,glycan array binding signal (z-score),[8],0.196
same,glycan array binding signal (z-score),[9],-0.128
same,glycan array binding signal (z-score),[10],0.076
same,glycan array binding signal (z-score),[11],0.294
same,glycan array binding signal (z-score),[12],-0.062
same,glycan array binding signal (z-score),[13],0.051
same,glycan array binding signal (z-score),[14],-0.26
same,glycan array binding signal (z-score),[15],0.871
same,glycan array binding signal (z-score),[16],-0.264
same,glycan array binding signal (z-score),[17],-0.249
same,glycan array binding signal (z-score),[18],-0.392
same,glycan array binding signal (z-score),[19],-0.027
same,glycan array binding signal (z-score),[20],-0.064
same,glycan array binding signal (z-score),[21],-0.214
same,glycan array binding signal (z-score),[22],0.158
same,glycan array binding signal (z-score),[23],-0.378
same,glycan array binding signal (z-score),[24],-0.201
same,glycan array binding signal (z-score),[25],0.037
same,glycan array binding signal (z-score),[26],-0.211
same,glycan array binding signal (z-score),[27],-0.079
same,glycan array binding signal (z-score),[28],-0.367
same,glycan array binding signal (z-score),[29],-0.24
same,glycan array binding signal (z-score),[30],-0.091
same,glycan array binding signal (z-score),[31],-0.476
same,glycan array binding signal (z-score),[32],0.089
